Several values for one entry are separate records, joined by “and”; a condition that tells them apart may be missing. Equal entries are not always repeated. Out of some 390,000 compounds screened, about 17,000 (4.4%) were called active. The inconclusive results got no clear call from the source; some entries with a clear call stand among them for comparison. Calls come from the whole dose curve; as a rule, active = well fitted inhibition curve with a large enough effect; inconclusive = small, poorly fitted or top-dose-only effect; inactive = no such curve, though single readings can be large or run the other way. Where the call is inconclusive, the potency comes from a doubtful curve fit. The source holds several records for some structures; these can differ, active in one and inactive in another.
Target: Lysine-specific demethylase 4A (Homo sapiens) (UniProt O75164)
Sequence of UniProt O75164 (O75164 whole entry, looked up, the tested form may be a part): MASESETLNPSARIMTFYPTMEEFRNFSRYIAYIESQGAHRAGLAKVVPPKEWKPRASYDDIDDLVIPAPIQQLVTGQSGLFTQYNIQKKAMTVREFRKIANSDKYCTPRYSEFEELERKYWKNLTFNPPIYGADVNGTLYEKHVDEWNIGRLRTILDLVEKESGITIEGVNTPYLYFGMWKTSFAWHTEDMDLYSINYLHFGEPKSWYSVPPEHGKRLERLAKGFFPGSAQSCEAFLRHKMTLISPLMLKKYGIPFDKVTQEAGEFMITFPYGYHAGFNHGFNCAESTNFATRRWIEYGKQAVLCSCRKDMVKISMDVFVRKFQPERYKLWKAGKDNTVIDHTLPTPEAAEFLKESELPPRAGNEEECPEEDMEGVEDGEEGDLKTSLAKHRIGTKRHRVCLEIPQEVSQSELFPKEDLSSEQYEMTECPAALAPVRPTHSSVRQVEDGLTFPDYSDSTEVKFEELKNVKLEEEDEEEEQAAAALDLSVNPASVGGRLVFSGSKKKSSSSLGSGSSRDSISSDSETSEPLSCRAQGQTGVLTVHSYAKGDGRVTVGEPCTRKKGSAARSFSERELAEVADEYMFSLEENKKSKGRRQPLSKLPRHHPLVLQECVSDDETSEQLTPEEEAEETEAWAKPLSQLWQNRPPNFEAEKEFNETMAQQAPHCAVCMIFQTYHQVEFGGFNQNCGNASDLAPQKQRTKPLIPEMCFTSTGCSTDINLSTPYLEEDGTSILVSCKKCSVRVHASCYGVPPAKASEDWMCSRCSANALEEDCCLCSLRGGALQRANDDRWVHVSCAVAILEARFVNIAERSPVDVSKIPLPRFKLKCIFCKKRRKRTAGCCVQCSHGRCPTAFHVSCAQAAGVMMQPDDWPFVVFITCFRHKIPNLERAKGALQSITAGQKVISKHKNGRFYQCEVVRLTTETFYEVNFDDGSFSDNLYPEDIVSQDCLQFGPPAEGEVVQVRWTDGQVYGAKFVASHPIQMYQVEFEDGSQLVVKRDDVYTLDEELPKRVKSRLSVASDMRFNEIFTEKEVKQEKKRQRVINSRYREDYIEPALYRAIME
Test: qHTS Assay for Inhibitors of JMJD2A-Tudor Domain; note: nearly all actives have a fitted effect of over 50% in size
Conditions: AlphaScreen JMJD2A-Tudor / H3K4me3 peptide binding; activity change, negative = inhibition: at 114 µM (top of the series)
% is set by controls: 0 for no effect and ±100 for the full control effect; potency is the fitted concentration of half-maximal effect; tags give direction and shape of the fitted curve.

Potency, active:
Cc1cc(CNCCN(C)C)c(C)n1-c1cc(S(=O)(=O)N2CCOCC2)ccc1N1CCCC1 8.91 µM, O=C(OCC(=O)N1CCCCCC1)c1ccc(Cl)c(S(=O)(=O)N2CCCC2)c1 20 µM, Cc1cc(NCCCCCCCNc2cc(C)nc3cc([N+](=O)[O-])ccc23)c2ccc([N+](=O)[O-])cc2n1 56.2 µM, OCCCn1c(-c2ccc(F)cc2)csc1=Nc1ccc(F)cc1 39.8 µM, CCCn1c(=O)c2ccccc2n2c(SCC(=O)NCc3cccs3)nnc12 25.1 µM, COc1cc(OC)c(NC2=C(c3ccc(C(F)(F)F)cc3)C(=O)c3ccccc32)cc1Cl 20 µM, O=S(=O)(c1ccc(Cl)s1)N1CCN(C/C=C/c2ccccc2)CC1 1 µM, COCCCn1c(C(=O)Nc2ccc3c(c2)OCO3)cc2c(=O)n3ccccc3nc21 25.1 µM, O=[N+]([O-])c1ccc(-c2csc(Nc3ccccc3)[n+]2Cc2ccccc2)cc1 17.8 µM, O=C(NNS(=O)(=O)c1ccc(Cl)cc1)c1sccc1-n1cccc1 12.6 µM, O=C1CCCC(=O)C1C(=O)C1CCN(S(=O)(=O)c2ccccc2)CC1 56.2 µM

Potency, inconclusive:
COc1ccc(N(CC(=O)NCCC2=CCCCC2)S(=O)(=O)c2ccccc2)cc1OC 89.1 µM [inhibitor, partial curve], Cc1cc2cc(CNC(=O)c3cccs3)ccc2[nH]1 50.1 µM [inhibitor, partial curve], CCOC(=O)c1c(C)[nH]c(C)c1C(=O)CSc1nc2ccccc2[nH]1 79.4 µM [inhibitor, partial curve], CC(=O)/C(=N\Nc1cccc(Cl)c1)Sc1nnc(-c2ccccc2)n1-c1ccccc1 31.6 µM [inhibitor, single point], Cn1c(CN2CCN(c3ccccc3NS(C)(=O)=O)CC2)nc2ccccc21 3.16 µM [inhibitor, full curve, poor fit], C=CCN(CC=C)c1ccc(N2C(=O)C3CCCCC3C2=O)cc1[N+](=O)[O-] (centres undefined) 31.6 µM [inhibitor, partial curve], c1ccc(-c2nc(NCc3ccco3)c3ccccc3n2)cc1 63.1 µM [inhibitor, partial curve, poor fit], COc1cc(C(c2c(C)[nH][nH]c2=O)c2c(C)[nH][nH]c2=O)ccc1OC(=O)c1cccc([N+](=O)[O-])c1 44.7 µM [inhibitor, partial curve, poor fit], Cc1cc(C)cc(SCc2noc(C(=O)NCCN(C)C)c2C(=O)NCCN(C)C)c1 100 µM [inhibitor, single point], Cc1c(C)n(Cc2ccc(F)cc2)c2ccc(C(=O)NCCN3CCOCC3)cc12 56.2 µM [inhibitor, partial curve], COc1ccccc1NC(=O)C1=C(C)Nc2nc(-c3ccc(N(C)C)cc3)nn2C1c1ccncc1 (centres undefined) 56.2 µM [inhibitor, partial curve], CCOc1ccc(OCC)c(NC(=O)c2cc3ccccn3n2)c1 50.1 µM [inhibitor, partial curve], O=C(CSc1nccn1C1CCCC1)Nc1cc(C(F)(F)F)ccc1Cl 50.1 µM [inhibitor, partial curve], CC(CNc1ccc([N+](=O)[O-])c2cccnc12)Nc1c([N+](=O)[O-])cc(C(F)(F)F)cc1[N+](=O)[O-] (centres undefined) 10 µM [inhibitor, full curve], O=C1CCc2cc(S(=O)(=O)Nc3ccc(-c4ccccc4)cc3)ccc2N1 50.1 µM [inhibitor, partial curve], COc1ccc(-c2nc3ccccn3c2CN2CCN(c3ccccc3F)CC2)cc1 35.5 µM [inhibitor, partial curve], Cc1cc(=O)[nH]c(SCCOc2ccc(OC(C)C)cc2)n1 2.51 µM [inhibitor, full curve, poor fit], CCOC(=O)c1[nH]c2ccc(OCC)cc2c1NC(=O)CN1CCN(c2ccccc2)CC1 79.4 µM [inhibitor, partial curve], COc1ccc(OC)c(C2=NNC(=NCc3ccc4c(c3)OCO4)SC2)c1 56.2 µM [inhibitor, partial curve], O=C(c1ccco1)N1CCN(Cc2nnc(-c3ccccc3F)o2)CC1 31.6 µM [inhibitor, partial curve], O=C(C1=C[C@H](c2ccc3c(c2)OCO3)C[C@H](OCc2ccc(CO)cc2)O1)N1CCN(Cc2ccc3c(c2)OCO3)CC1 44.7 µM [inhibitor, partial curve], O=C(CCN1C(=O)/C(=C\c2ccccc2)SC1=S)Nc1ccc(C(=O)O)cc1 56.2 µM [inhibitor, partial curve], CCOc1ccc(/C=N/NC(=O)NC23CC4CC(CC(C4)C2)C3)cc1O 44.7 µM [inhibitor, partial curve], O=C(O)CSc1nc2ccc(NC(=O)COc3ccc(Cl)cc3)cc2s1 70.8 µM [inhibitor, single point], CCN1CCCc2cc(CN(CCN3CCOCC3)C(=S)Nc3ccc(OC)c(Cl)c3)ccc21 35.5 µM [inhibitor, partial curve, poor fit], CC(=O)c1ccc(-n2c(CCC(=O)O)ccc2-c2cccs2)cc1 14.1 µM [inhibitor, single point], Cc1ccc(C)c(N2CCN(CCCNC(=O)c3cnn(-c4ccc(F)cc4)c3C3CCN(C(=O)OC(C)(C)C)CC3)CC2)c1 50.1 µM [inhibitor, partial curve], Cc1c(C(=O)N2CCOCC2)oc2c1-c1nn(CC(=O)NCc3cccc(Cl)c3)cc1CC2 50.1 µM [inhibitor, partial curve], O=C(NNc1nc(Nc2ccccc2)nc(N2CCOCC2)n1)Nc1ccc(Cl)cc1 79.4 µM [inhibitor, partial curve], COc1ccc(OCc2cc(C(=O)NCCN3CCCc4ccccc43)no2)c(Cl)c1 20 µM [inhibitor, full curve], CCC12CN3CCN(CC(C3)/C1=N\NC(=O)c1ccc(F)cc1)C2 3.55 µM [inhibitor, full curve], Cc1ccc2nc3c(cc(C(=O)NCC4CCCO4)c(=N)n3CCCOC(C)C)c(=O)n2c1 (centres undefined) 50.1 µM [inhibitor, partial curve], COc1ccc(-c2c(C)c3cc(O)ccc3oc2=O)cc1OC 28.2 µM [inhibitor, full curve, poor fit], CCCCOc1ccc(S(=O)(=O)n2c(C)nc3ccccc32)cc1 100 µM [inhibitor, single point]

Potency, inactive:
COc1ccc(Cl)cc1NC(=S)N(Cc1ccc(C(=O)O)cc1)Cc1ccc(OC)c(OC)c1, CCOC(=O)c1cc(C#N)c(N)nc1C, CCOC(=O)Cn1c(=O)oc2cc(S(=O)(=O)N3CCN(c4cccc(C)c4)C(C)C3)ccc21 (centres undefined), O=C(NCc1ccc2c(c1)OCO2)C1CCN(S(=O)(=O)c2cccc3nsnc23)CC1, CCOCCCNC(=O)Cc1ccc(OC)c(OC)c1, Cc1cc(C)nc(N2CCCC(C(=O)NC3CC3)C2)n1 (centres undefined), COc1ccccc1CNC(=O)CSc1ccc(-c2sc(-c3ccccc3)nc2C)nn1, CS(=O)(=O)c1ccc(Cl)c(NC(=O)CSc2nncn2-c2ccccc2)c1, Cc1cc(F)ccc1S(=O)(=O)Nc1ccc(O)c(Sc2ncn[nH]2)c1, CN(C(=O)CSc1nnc(COc2ccccc2)o1)c1ccccc1, O=C(c1ccc2c(c1)N(Cc1ccccc1)C(=O)c1ccccc1S2(=O)=O)N1CCc2ccccc21, COc1ccc(CNC(=O)CC(c2ccc(OC)cc2)N2Cc3ccccc3C2=O)cc1 (centres undefined), CC(C)c1ccc(S(=O)(=O)N2CCC(C(=O)NCc3ccco3)CC2)cc1, COc1ccccc1NC(=O)/C=C/c1ccc(OC)c(S(=O)(=O)N2CCOCC2)c1, Cc1ccc(-n2c(=O)c3c(c4cc(C)ccc4n3C)n(CC(=O)c3ccc(Cl)cc3)c2=O)cc1, O=C(Cn1c(=O)nc(-c2ccccc2)c2ccccc21)N1CCN(c2ccc(F)cc2)CC1, CC12CCC(C(=O)O)(c3nc4cc([N+](=O)[O-])ccc4nc31)C2(C)C (centres undefined), CC(=O)c1ccc(-n2nnnc2SCC(=O)NC2CCCCC2)cc1, CCOC(=O)c1c(NC(=O)COc2cccc(C)c2C)sc2c1CCC(CC)C2 (centres undefined), CC(=O)N1c2ccc(S(=O)(=O)Nc3ccc(Cl)cc3C)cc2CC1C (centres undefined), CCC(C)(C)NC(=O)C(c1cccc(OC)c1OC)N(CCC(C)C)C(=O)CCC(=O)Nc1cc(C)on1 (centres undefined)

Potency, inactive and 39.8 µM (active):
CCOc1ccc(CNC(=O)Cn2nc(C)c3c(C)n(-c4ccc(C)cc4)nc3c2=O)cc1

Activity change, negative = inhibition, inactive:
CC(C)C(=O)NC(=S)Nc1ccc(S(=O)(=O)Nc2nccs2)cc1 -18.8% [at 11.4 µM]

Activity change, negative = inhibition, inconclusive:
COc1cc2c3c(c1)C(C)=CC(C)(C)N3C(=O)C2=O -60.1% [inhibitor]
